In all, about 33,000 sequences were measured (“E-score (-0.5 to 0.5)”: median about -0.054, highest 2% from about 0.39 on). The list shows a part of the results.
These sequences were tested against Ylr278c (UniProt Q05854) (assay: PBM E-score (8-mer binding enrichment) (E-score (-0.5 to 0.5)); higher = stronger / more preferred TF binding; most listed sequences are background and not binding sites). Settings: protein concentration: 200 nM; construct: GST-DNA-binding domain.
In short: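 Bound GST-tagged yeast transcription factors, applied at about 100-200 nM to double-stranded universal all-10-mer Agilent arrays, were detected with fluorescent anti-GST. Scans were normalised with masliner. A modified Wilcoxon-Mann-Whitney statistic, the E-score, was assigned to each ungapped eight-base word pooled with its reverse complement by the Universal PBM Analysis Suite.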

Point of comparison: CTACCGAC, “PBM E-score” value 0.0867. Against it:
- AGTGCGTA — lower, -0.0325
- GAAGGATC — lower, -0.123
- ACCACGTA — lower, -0.314
- CGTGAGCA — lower, -0.0624
- CAATACCG — higher, 0.275
- ACTTCTCA — lower, -0.222
- GACAGTGC — lower, 0.0683
- CCTTAACG — lower, 0.00319
- AAATGCGG — higher, 0.308
- CACCACCA — lower, -0.0579
- ACAATGTG — lower, -0.186
- GTTTGAAA — lower, -0.0339
- CGCTTACC — lower, 0.0277
- GCCACATA — lower, -0.0623
- ACATGCGT — lower, -0.171
- CGACGGAC — higher, 0.337
- GATGTGTA — lower, -0.0743
- CCATTGGA — lower, -0.0795
- CTTTGCGC — higher, 0.105
- CATTTCGC — higher, 0.107
- ATCAAGCG — lower, -0.0362
- AAAATGAA — lower, -0.155
- GCGCATTA — higher, 0.129
- AGATCTTA — lower, -0.141
- GTTACTCA — lower, -0.114
- CTTGCGCA — lower, 0.0522
- CCGACGGC — higher, 0.315
- CGTGATGC — lower, 0.073
- CGGGATGC — higher, 0.21
- AAGGTAAA — lower, 0.00542
- ACCATTAT — lower, -0.0869
- CGCGTCGC — lower, -0.0249
- TGACATAA — lower, -0.00924
- AACAATCT — lower, -0.152
- TATTAACA — lower, -0.0291
- AGAAGTGG — lower, -0.0693
- CACGATGG — lower, -0.224
- AATGCGAG — lower, 0.00781
- GCACCTAA — lower, -0.107
- AGTCGGTG — lower, 0.0664
- ACGCGAAT — lower, -0.0806
- GGACTAGA — higher, 0.0963
- ACATGTAT — lower, -0.012
- CGCAAGCA — lower, 0.00834
- CGCCCTCA — lower, -0.0239
- AGATGACC — lower, 0.00414
- ATGAAGGC — lower, -0.045
- CTTAACCA — lower, -0.334
- TAAACGAA — lower, -0.02
- ACCGCAGG — higher, 0.115
- AACTTCTT — lower, -0.119
- CATGTGAC — lower, -0.378
- AACATAGA — lower, -0.0265
- CCATATCC — higher, 0.139
- AGGGCGAT — lower, -0.234
- GCCTTCGC — higher, 0.133
- CGTGCGAA — lower, 0.0158
- ACCCAAAA — lower, -0.181
- CAAGGCAA — lower, -0.259
- GGTACGTA — lower, -0.234
- TATATACA — lower, -0.165
- ACCCGGCG — higher, 0.258
- AGCAGACT — lower, -0.283
- CTATTTCC — higher, 0.249
- CAGACTGA — lower, -0.166
- CACACCCC — lower, -0.00534
- ACATACGT — lower, -0.185
- ATAGGTCA — lower, -0.115
- AGGGGGTG — lower, -0.148
- CGCCTGAA — lower, -0.0702
- GAATTTAC — higher, 0.14
- ACAATGAC — lower, -0.195
- ACAGGCTG — lower, -0.38
- ACGGGAAA — higher, 0.236
- GACAAGGC — lower, 0.0854
- AATAACTG — lower, -0.0254
- GCTCGAGC — higher, 0.164
- AATCGGAC — higher, 0.397
- CCACTGTA — lower, -0.247
- ACTGAGCG — lower, -0.265
- GGCGTGAA — lower, -0.0348
- CAGCGGCA — lower, -0.0688
- AAGTCCAC — lower, -0.192
- GCGTATCA — lower, -0.129
- ACCAGTGA — lower, -0.225
- GAATTGAA — higher, 0.11
- CTAGCCTC — lower, -0.225
- CGACTTGA — lower, -0.133
- TGACAGCA — lower, -0.0319
- CACACTAG — lower, -0.103
- ACGACGTG — lower, -0.214
- GGCTACAA — lower, -0.143
- ACGAATGA — lower, 0.00735
- GTTCAAGA — lower, -0.0811
- GCCTACCC — lower, -0.184
- ATCGGAAA — higher, 0.416
- GCCCTACC — lower, -0.131
- CCGCCGTC — higher, 0.218
- ATGGAGCA — lower, -0.0944
- AACTCCTC — lower, 0.0657
- GCGGCATA — higher, 0.166
- TACTTACA — lower, -0.254
- TAATGAAA — lower, -0.0666
- AGGACATC — higher, 0.0899
- CAGGCGAG — lower, -0.243
- ATGGTGGG — lower, -0.0929
- CGCGCAGA — higher, 0.141
- GGACCCGA — higher, 0.261
- GTGACAAA — lower, -0.0345
- TAAATACA — lower, -0.0956
- TCGTGAAA — lower, -0.0818
- AACTCTCG — lower, -0.0171
- TGTGCTAA — higher, 0.223
- GGACTTTA — higher, 0.275
- AACCTTAG — lower, -0.151
- CCCCGCCA — higher, 0.356
- AGTATGCG — lower, 0.0748
- CAGTTATG — lower, -0.0878
- AGGCGTCG — lower, -0.0177
- GCACCCGA — higher, 0.133
- AACGTGCT — lower, -0.224
- AAATAATA — higher, 0.11
- AGACTTAT — lower, -0.228
- ACCAACGG — higher, 0.203
- AGCGGTTG — lower, -0.164
- CGGCAGAC — higher, 0.194
- AGCAGGGG — lower, -0.0903
- ATGGTGCC — lower, -0.0823
- CTGTGCTC — lower, -0.0371
- GAACTCAA — lower, 0.00625
- GAAAGGGA — lower, -0.0978
- GCACTAAC — lower, -0.105
- AGCGGCTG — lower, -0.14
- AATTTTGT — higher, 0.127
- AGCACGAC — lower, -0.174
- AATTCAGC — lower, -0.0865
- ATCCTGGC — lower, -0.167
- CACAGTCC — lower, -0.00317
- ACCTCATG — lower, -0.349
- GCCGCAGC — higher, 0.203
- GGAGAATA — higher, 0.189
- CAGAAGCG — lower, 0.0377
- CGTGCGGC — higher, 0.163
- GTTTTAAA — lower, -0.0723
- GCGGGTGA — lower, 0.0824
- GTGTCCAA — lower, -0.0567
- GTAATTAC — higher, 0.216
- ACCGTAGC — lower, -0.127
- GATATTTA — lower, -0.0205
- CGTCAACC — lower, 0.0223
- TAGTTGCA — lower, -0.0056
- CAGGGAGG — lower, -0.223
- CCACGACA — lower, -0.017
- ACGCTGGA — lower, -0.059
- CTGTTATC — lower, -0.0896
- CCACTACG — lower, -0.00618
- GGTGGGCA — lower, -0.0418
- AAACGTCA — lower, -0.25
- ATTCGGTC — lower, 0.083
- GAGACAGA — lower, 0.0483
- CAACGCGA — lower, 0.0417
- ACGGACGC — higher, 0.251
- ACCGCGCA — higher, 0.143
- GAACGAGA — lower, 0.0584
- GTTGGCCA — lower, -0.0678
- CCGGCGCG — higher, 0.375
- TATGTAAA — lower, 0.0517
- ATCATCAG — lower, -0.114
- AGTATCAA — lower, -0.0292
- CCGCTTCG — higher, 0.116
- CGGTTGGA — lower, -0.0594
- AACAAGCA — lower, 0.0514
- ATTGCAGG — lower, -0.0911
- TTTACAAA — lower, -0.181
- ATTGAAAT — lower, 0.0209
- AGATGGTG — lower, -0.214
- ACATAACG — lower, 0.023
- CCCCGTGC — higher, 0.295
- CCTTTATA — lower, -0.193
- TACGACAA — lower, -0.0244
- CGCGTACC — lower, -0.0449
- ACCACTCC — higher, 0.317
- AGAAGATG — lower, -0.00349
- ACAGGTAT — lower, -0.112
- GTGCGAAC — lower, 0.0832
- AGCCTTTA — lower, -0.156
- ATCGCGGA — higher, 0.299
- CTACAGTC — lower, -0.194
- AGATCCGG — higher, 0.41
- CCATGTTC — lower, -0.0504
- AAAAGAAT — lower, 0.0663
- GACGCGAA — lower, -0.0214
- ACGCACGT — lower, -0.0259
- ACGATAGA — lower, -0.285
- CTGCAGTA — lower, -0.167
- TCTAAAAA — lower, -0.0525
- ACCTTTTC — lower, -0.212
- GTTTGACA — lower, -0.111
- CCCGCCGC — higher, 0.314
- TGAAAGAA — lower, -0.15
- AAGGGGAG — lower, -0.0262
- CGGGTAGA — lower, -0.143
- CATCACCA — lower, -0.174
- ATTTGCGA — lower, -0.0807
- CCTCCACG — lower, -0.0547
- GCCCAGCC — lower, -0.157
- AAAACGGT — lower, -0.139
- ATTTTGAC — lower, -0.122
- ACTGATCC — lower, -0.109
- AACCACCC — lower, -0.0603
- GACTATAA — lower, -0.0512
- CTGAAACC — lower, 0.0858
- AAACAAAT — lower, -0.0381
- GCAAAACC — lower, 0.0525
- CAATTACG — lower, -0.231
- AATCACAG — lower, -0.199
- CCCTAGAA — lower, -0.264
- CAGAACGG — lower, -0.0676

— the supplement of paper PMC3334620
